Holding throughout (format): cell-based
In assay [1] the test system is Oct4 target genes (Oct4, Sox2, Nanog, Smad3 and Smad4). Nature of the assay: RT-qPCR of Oct4 target genes in HepG2 cells treated with transducible materials. Conditions: serum-free medium, 6 hours, normalized by GAPDH, sGFP-treated sample set as 1.00. The method, then:
FIG. 2. Comparison of sGFP-Oct4(mNES) and sGFP-Oct4 protein in regulating the expression of downstream genes. HepG2 cells were treated with sGFP, sGFP-Oct4 or sGFP-Oct4(mNES) in serum-free medium for 6 hours. RNA was isolated and RT-qPCR was performed. The expression of each gene was normalized by the expression level of GAPDH. The relative expression level of each gene in the control condition (sGFP-treated sample) was set as 1.00.
HepG2 cells were treated with transducible materials comprising isolated polypeptide of sGFP, sGFP-Oct4-11R or sGFP-Oct4(mNES)-11R in serum-free medium for 6 hours. RNA was extracted from each sample using RNeasy Micro Kit from Qiagen and cDNA was synthesized through reverse transcription reaction. RT-qPCRs of five Oct4 target genes (Oct4, Sox2, Nanog, Smad3 and Smad4 were performed using a pair of primers specific to each target gene and a hydrolysis probe from Roche Universal ProbeLibrary on LightCycler 480 II. The expression of each gene was normalized by the expression level of GAPDH. The relative expression level of each gene in the control condition (sGFP-treated sample) was set as 1.00.
A general note: In qPCR the cycle at which signal appears reflects the starting amount.

The test system of assay [2] is adult human fibroblasts. Nature of the assay: Live fluorescent imaging of uptake and nuclear occupancy of sGFP polypeptides in fibroblasts. The method, then:
FIG. 5. Live fluorescent imaging of human fibroblasts after culturing in 10 μg/ml of first generation sGFP-MyoD-11R.
In the first generation of transducible materials, a sGFP transduction domain and a poly-arginine (11R) were fused to the N-terminus and C-terminus of MyoD through a linker (SEQ ID NO: 99) respectively to generate sGFP-MyoD-11R (SEQ ID NO: 156). […] The nuclear entry of sGFP-MyoD-11R was increased by using 100 μg/ml sGFP-MyoD-11R and electroporation, which successful reprogrammed very low percentage (around 10%) of FBs to MyoD+ myoblasts.
The second generation of transducible materials, a strong classic nuclear localization sequence (cNLS), the SV40 T antigen NLS, was added in-between sGFP and MyoD-11R (SEQ ID NO: 157 and FIG. 3).
Leptomycin B (leptoB), a nuclear export blocker, was added at 5 nM to adult fibroblasts to enhance nuclear occupancy of sGFP-NLS-MyoD-11R. […] Higher concentrations of leptoB might have off-target effects, which limits its use in enhancing nuclear retention of specific polypeptides.
In the third generation of transducible materials, the NES of MyoD was mutated to generate sGFP-NLS-MyoD(mNES)-11R (SEQ ID NO: 127 and FIG. 3) to further improve their nuclear occupancy and transcription efficiency. […] These SCs were positive for Myf5 (>90% of SCs) at 22 days after transduction (FIG. 8B). Also, these SCs could be induced to differentiate to myoblasts with downregulation of Pax7 and upregulation of MyoD via a published myogenic protocol (Cosgrove et al, Rejuvenation of the muscle stem cell population restores strength to injured aged muscles, Nat Med., 20:255-64 (2014)). […] Thus, by using sGFP-NLS-MyoD(mNES)-11R, efficient fibroblasts conversion to SMPCs can be achieved in a controlled fashion. The risk of extensive durations of MyoD activation is completely avoided. Most myogenic analysis was performed at >2 weeks after polypeptide transduction to avoid confounding issues from added exogenous polypeptides. In summary, adult fibroblast can be successfully reprogrammed to SCs using sGFP-NLS-MyoD(mNES)-11R with defined kinetics (2-day nuclear occupancy and 2-3 week peptide lifespan).

Assay [3] concerns adult human fibroblasts. Nature of the assay: Reprogramming of fibroblasts to skeletal muscle progenitor cells (satellite cells, myoblasts). How it is done:
FIG. 4. Schematic of experimental protocol to convert fibroblasts to myoblasts with transducible materials derived from MyoD.
In this example, three versions of transducible materials derived from MyoD (the master myogenic transcription factor) were generated and their effects on reprogramming fibroblast cells into skeletal muscle progenitor cells (SMPCs) were compared.
Most myogenic analysis was performed at >2 weeks after polypeptide transduction to avoid confounding issues from added exogenous polypeptides.

B1: sGFP-Oct4(mNES)-11R: Fusion polypeptide of supercharged GFP, Oct4 with mutated NES and 11R, SEQ ID NO: 141 (protein)
chain: MASKGERLFRGKVPILVELKGDVNGHKFSVRGKGKGDATRGKLTLKFICTTGKLPVPWPTLVTTLTYGVQCFSRYPKHMKRHDFFKSAMPKGYVQERTISFKKDGKYKTRAEVKFEGRTLVNRIKLKGRDFKEKGNILGHKLRYNFNSHKVYITADKRKNGIKAKFKIRHNVKDGSVQLADHYQQNTPIGRGPVLLPRNHYLSTRSKLSKDPKEKRDHMVLLEFVTAAGIKHGRDERYKGGSGGSGGSGGSHMFYSGLLTEGGRKETDMREAASLRQQRRMKQAVQFIHKDSADLLPLDGLKKLGSSKDMQPHNILQRRLMETNLSKLRSGPRVPWASKTNKLNQAKSEGLKKSEEDDMILVSCQCAGKDVKALVDTGCLYNLISLACVDRLGLKEHVKSHKHEGEKLSLPRHLKVVGQIEHAVITAGSLRLDCPAAVVDDNEKNASAGLQTLRSLKCIINLDKHRLIMGKTDKEEIPFVETVSLNEDNTSEAESGGGGSPGRRRRRRRRRRR
As to B1, the “expression of Oct4 target genes” value in assay [1] is given as “significantly increase”.

B2: sGFP-NLS-MyoD(mNES)-11R: Third generation: second generation with the NES of MyoD mutated, SEQ ID NO: 127 (protein)
chain: MASKGERLFRGKVPILVELKGDVNGHKFSVRGKGKGDATRGKLTLKFICTTGKLPVPWPTLVTTLTYGVQCFSRYPKHMKRHDFFKSAMPKGYVQERTISFKKDGKYKTRAEVKFEGRTLVNRIKLKGRDFKEKGNILGHKLRYNFNSHKVYITADKRKNGIKAKFKIRHNVKDGSVQLADHYQQNTPIGRGPVLLPRNHYLSTRSKLSKDPKEKRDHMVLLEFVTAAGIKHGRDERYKGGSGGSGGSGGSHMAQPLCPPLSESWMLSAAWGPTRRPPPSDKDCGRSLVSSPDSWGSTPADSPVASPARPGTLRDPRAPSVGRRGARSSRLGSGQRQSASEREKLRMRTLARALHELRRFLPPSVAPAGQSLTKAETARLAIRYAGHASAVLGLSEESLQRRCRQRGDAGSPRGCPLCPDDCPAQMQTRTQAEGQGQGRGLGLVSAVRAGASWGSPPACPGARAAPEPRDPPALFAEAACPEGQAMEPSPPSPLLPGDVLALLETWMPLSPLEWLPEEPKESGGGGSPGRRRRRRRRRRR
Turning to B2, in assay [2] (10 μg/ml, leptomycin B 5 nM), the “time the polypeptide stays in the nucleus” value lay within 48 to 72 h. Further, in assay [2] (10 μg/ml, leptomycin B 5 nM, third generation at 30 min, 24 hours and 48 hours), the “nuclear occupancy (GFP signal in nuclei) with leptomycin B” value is “Strong GFP signal was observed in nuclei”. Besides, the “nuclear occupancy (summary of kinetics)” value in assay [2] (adult fibroblasts) worked out at 2 days. In addition, the “GFP signal of the polypeptide late after application” value in assay [2] (after 22 days after the polypeptide application) is on record as “No GFP signal”. The “time in culture until fully degraded (peptide lifespan)” value in assay [2] (fluorescent imaging of the sGFP) is on record as 2-3 weeks. Besides, the “time after transduction at which polypeptides were almost completely exported from nuclei to cytoplasm” value in assay [2] (regardless of the existence of leptomycin B) is more than 72 h. The “conversion of human fibroblasts to satellite cells (marker staining)” value in assay [3] (18-22 D after exposure to polypeptide and leptomycin B) is “converted to Pax7+/Myf5+ SCs”. Further, the “SCs positive for Myf5” value in assay [3] (at 22 days after transduction) is listed as > 90 % of SCs. The “adult fibroblasts converted to Pax7+/MyoD− satellite cells” value in assay [3] (third generation, leptomycin B) is given as more than 90%.

Values taken from patent US20160168541A1, “TRANSDUCIBLE MATERIALS FOR CELL REPROGRAMMING” (VIVOSCRIPT, INC., priority 2013, published 2016).
